Laboratory results reported in PMC6919601, “Identification of Plasmodium dipeptidyl aminopeptidase allosteric inhibitors by high throughput screening” (PLoS ONE, 2019).
The whole screen tested about 110,000 compounds, of which about 230 (0.21%) showed an effect of 50% or more. Some of the results follow.

molecular target: DPAP1 (Plasmodium falciparum, UniProt Q8IIJ9); assay: primary screen, percent inhibition; read by cleavage of a fluorogenic dipeptide substrate; higher = more effect of the substance; parameters: species or system P. falciparum D10 trophozoite lysates; single well
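Also: 30 min substrate incubation versus DMSO and 10 µM JCP410 controls.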

DPAP1, sequence (Q8IIJ9 whole entry, looked up): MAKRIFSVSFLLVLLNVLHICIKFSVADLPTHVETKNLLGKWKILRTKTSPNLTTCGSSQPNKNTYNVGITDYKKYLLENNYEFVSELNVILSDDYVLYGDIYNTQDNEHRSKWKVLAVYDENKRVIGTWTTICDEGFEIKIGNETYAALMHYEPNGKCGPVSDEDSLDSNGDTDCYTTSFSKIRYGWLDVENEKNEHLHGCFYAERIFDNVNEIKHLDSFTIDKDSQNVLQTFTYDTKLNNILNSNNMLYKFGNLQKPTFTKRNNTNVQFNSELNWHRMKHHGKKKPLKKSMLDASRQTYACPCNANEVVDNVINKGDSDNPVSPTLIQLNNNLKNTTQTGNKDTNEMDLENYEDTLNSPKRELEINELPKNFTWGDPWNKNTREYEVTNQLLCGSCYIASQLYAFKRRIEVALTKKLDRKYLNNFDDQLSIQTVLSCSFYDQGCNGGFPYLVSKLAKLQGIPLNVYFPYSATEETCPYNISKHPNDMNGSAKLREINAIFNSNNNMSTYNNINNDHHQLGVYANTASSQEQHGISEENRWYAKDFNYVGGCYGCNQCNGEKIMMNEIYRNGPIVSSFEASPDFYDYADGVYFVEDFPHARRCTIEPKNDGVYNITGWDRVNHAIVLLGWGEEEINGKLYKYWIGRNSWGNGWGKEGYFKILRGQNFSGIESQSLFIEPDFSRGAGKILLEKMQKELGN

SMILES | % Inhibition @ 10 uM
CC(C)C[C@H](NC(=O)c1cccnc1)C(=O)N[C@@H](CCc1ccccc1)C(=O)c1ncc(-c2ccccc2)o1 | 0.744%
CC1(C)Nc2ccccc2C(=O)N1c1ccc(Br)cc1 | -2.03%
Cc1ccc(C2CC(C(F)(F)F)n3nc(C(=O)NCc4cnn(C)c4C)c(Cl)c3N2)cc1 (centres unmarked) | -6.38%
Cc1ccc(-n2nc(C)c3c(C(=O)NCCc4c[nH]cn4)cc(C)nc32)cc1 | 3.75%
COc1ccc(S(=O)(=O)N(C)CC(=O)NCc2ccc(Cl)cc2)cc1OC | -2.5%
CC(=O)Nc1ccc(NC(=O)c2ccc(C3SCC(=O)N3CCc3ccccc3)cc2)cc1 (centres unmarked) | -3.72%
COc1cccc(-c2nc3nc(C)c(CCC(=O)N4CCCC4)c(C)n3n2)c1 | -6.03%
O=c1[nH]c(=O)n(-c2ccc(Cl)cc2)c2c1C(C(F)(F)F)(C(F)(F)F)NC(c1cccnc1)=N2 | -5.23%
Oc1ccc(Nc2nc(-c3ccccc3)cs2)cc1 | 1%
Cc1ccc2oc(C(=O)N3CCC(Cc4ccccc4)CC3)cc(=O)c2c1 | 1.9%
CCC(Sc1ncccc1C(=O)OCCN1CCCC1=O)C(=O)NCc1ccco1 (centres unmarked) | -3.35%
Cc1[nH]nc2c1C(c1cc(COc3ccc(F)cc3Cl)c(C)s1)C(C#N)=C(N)O2 (centres unmarked) | -0.305%
CC(=O)c1ccc(Oc2nnnn2-c2ccccc2)cc1 | 2.72%
C(#Cc1ccccc1)CN1CCCCCC1 | -0.988%
COc1ccc(CC(=O)N2CCN(C)CC2)cc1OC | -5.48%
Cc1ccc(C(=O)N/C(=C\c2ccco2)C(=O)N2CCN(c3ccccn3)CC2)cc1C | -4.93%
CC(C)(C)NC(=O)NCCC12CC3CC(CC(C3)C1)C2 | -6.47%
COc1ccc(C(NC(=O)CC(C)C)c2ccc3cccnc3c2O)cc1OC (centres unmarked) | -3.27%
COc1cc(OC)c(-c2nnc3n(CCc4ccccc4)c(=O)c4ccccc4n23)cc1OC | -1.72%
CCOc1ccc(NC(=O)CN(c2ccc(OC)c(Cl)c2)S(C)(=O)=O)cc1 | 1.52%
CC1CC(C)CN(C(=O)c2cccc3c2-c2ccccc2C3=O)C1 (centres unmarked) | -4.7%
CCOC(=O)C1=C(CC)OC(N)=C(C#N)C1c1cccc2ccccc12 (centres unmarked) | 0.317%
CCOC(=O)c1sc2nc(C)c(C)c(C)c2c1NC(=O)c1ccccc1Cl | 4.19%
COc1ccc2ncc(S(=O)(=O)c3ccccc3)c(N3CCC(C)CC3)c2c1 | -2.84%

SMILES | % Inhibition @ 10 uM
O=C(Nc1cccc(F)c1)c1cc(Cl)c(Cl)c(S(=O)(=O)N2CCOCC2)c1 | 8.72%
Cc1ccc(Cc2nn[nH]n2)cc1 | 3.5%
COc1cc(OC)c(CN2CCCCC2)cc1Br | 3.48%
COc1ccc(-n2nc3c(c2NC(=O)Cc2ccc(OC)c(OC)c2)CS(=O)(=O)C3)cc1 | 3.23%
Cc1ccc(C(=O)NC2CCN(Cc3ccccc3)CC2)cc1 | -1.52%
COc1ccccc1NC(=O)C1CC=CCC1C(=O)N(c1ccccc1)c1ccccc1 (centres unmarked) | -1.74%
CC(C)OCCCNC(=O)C1CCN(C(=O)c2cnn(-c3ccccc3)c2-n2cccc2)CC1 | 0.137%
Cc1ccc(Oc2ccc(NC(=O)c3c(C(=O)O)cccc3[N+](=O)[O-])cc2)cc1C | 40.1%
COc1cc(S(=O)(=O)NCCCN2CCOCC2)ccc1-n1cnnn1 | -12.7%
CN(C)c1ccc(NC(=O)c2nc3ccccc3s2)cc1 | -1.61%
CCOc1ccc(C2c3cccn3CCN2C(=S)NC(C)(C)C)cc1 (centres unmarked) | -8.59%
Cc1nc2ccc(S(=O)(=O)NCC(=O)NCCC(C)C)cc2s1 | -6.09%
O=C(NCCc1nc2ccccc2[nH]1)C1CCCCC1 | -0.0235%
Cc1ccc(OCC(=O)Nc2ccncc2)cc1 | -3.52%
C=C(C)CN(CC)Cc1cccc([N+](=O)[O-])c1 | -1.78%
COc1cccc(-c2nn(C)c3sc(C(=O)N4CCCC(C)C4)cc23)c1 (centres unmarked) | -4.14%
Cc1cc(O)c(C2=Nc3ccccc3SC(c3ccccc3O)C2)c(=O)o1 (centres unmarked) | -2.18%
CC/N=C1\S/C(=C\c2cn(CC)c3ccccc23)C(=O)N1CC | -8.75%
CCn1c(S)nnc1-c1csc(C(C)C)c1 | -4.84%
COc1cccc(CO)c1OCC(=O)Nc1ccccc1 | 1.27%
CCNC(=O)/C(=C\c1ccc(OC)cc1)NC(=O)c1ccc(Br)o1 | -2.64%
CC(C)C[C@H](NC(=O)c1ccc2nc(-c3ccc[n+](C)c3)oc2c1)C(=O)NCC#N | 1.7%
CCOc1ccc(-c2cc(NC(=O)c3noc4c3COc3ccc(C)cc3-4)on2)cc1 | -0.825%
